The target of experiment [1] is CXCR1 (UniProt P25024). Nature of the experiment: flow cytometry, CXCR1-U2OS / parental U2OS.
Experiment [2] has as its target CXCR1 (UniProt P25024). Description: flow cytometry, 10 nM IgG, 2 ug/ml heparin sulfate, CXCR1-U2OS / parental U2OS.

Sequence of UniProt P25024 (P25024 whole entry): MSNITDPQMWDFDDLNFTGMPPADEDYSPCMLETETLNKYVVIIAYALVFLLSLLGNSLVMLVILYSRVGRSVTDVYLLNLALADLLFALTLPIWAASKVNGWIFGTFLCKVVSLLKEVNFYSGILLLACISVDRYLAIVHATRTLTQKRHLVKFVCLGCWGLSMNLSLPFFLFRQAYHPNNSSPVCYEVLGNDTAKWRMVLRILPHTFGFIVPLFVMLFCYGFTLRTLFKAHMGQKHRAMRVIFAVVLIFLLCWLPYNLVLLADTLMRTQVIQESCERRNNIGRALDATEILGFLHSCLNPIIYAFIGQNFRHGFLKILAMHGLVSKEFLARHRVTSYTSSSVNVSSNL

B1: VH4-34+CDR3-IL8_CDR1 Cow_CDR2 Cow / V1-51 IgG (antibody, from a related filing, part only)
heavy: QVQLQQWGAGLLKPSETLSLTCTASGFSLSDKAVGWIRQPPGKGLEWLGSIDTGGNTGYNPSLKSRVTISVDTSKNQFSLKLSSVTAADTAVYYCTSVHQETKKYQSPRSAKELRCQCIKTYSKPFHPKFIKELRVIESGPHCANTEIIVKLSDGRELCLDPKENWVQRVVEKFLKRAENSGSGSYTYNYEWHVDVWGQGLLVTVSS[omitted - human IgG1 constant region]
light: QSVLTQPPSVSAAPGQKVTISCSGSSSNIGNNYVSWYQQLPGTAPKLLIYDNNKRPSGIPDRFSGSKSGTSATLGITGLQTGDEADYYCASAEDSSSNAVFGSGTTLTVLGQPKAAPSVTLFPPSSEELQANKATLVCLISDFYPGAVTVAWKADSSPVKAGVETTTPSKQSNNKYAASSYLSLTPEQWKSHRSYSCQVTHEGSTVEKTVAPTECS
B1: the CXCR1/Parental Ratio with CXCR1 [1] came out at 3.1. Besides, the CXCR1 specificity (CXCR1/parental ratio) in the experiment with CXCR1 [2] is 11.1.

These data come from patent US20230287598A1.
